Measurements reported in the supplement of paper PMC9446081.
Among all 39,000 compounds or so, about 220 (0.56%) showed activity. The list shows a part of the results.

system: Escherichia coli K-12 BW25113; assay: relative growth (OD600 normalised to plate interquartile mean) (fraction); higher = less growth inhibition, active = 0.2 or less; conditions: 50 µM; LB; incubation time: overnight (16-24 h)
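Further: static incubation at 37 °C against the wild-type strain, values averaged over two biological replicates.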

Compound | relative growth
C[C@H](O)C#Cc1ccc2c(c1)O[C@H](CN(C)C(=O)C1CCCCC1)[C@H](C)CN([C@@H](C)CO)S2(=O)=O | inactive: 1
C[C@@H]1CN([C@H](C)CO)C(=O)c2cc(NC(=O)CCN3CCOCC3)ccc2O[C@H]1CN(C)C(=O)NC1CCCCC1 | inactive: 1.02
C=C1CCC(=O)C(C)CCC2C1CC2(C)C (configuration not stated) | inactive: 0.92
C[C@@H]1CN([C@H](C)CO)C(=O)c2cc(N(C)C)ccc2O[C@@H](C)CCCCO[C@@H]1CN(C)Cc1ccc(C(F)(F)F)cc1 | inactive: 0.979
C[C@@H]1CN([C@@H](C)CO)C(=O)Cc2cc(NC(=O)NC3CCCCC3)ccc2O[C@H]1CN(C)Cc1ccc(C(F)(F)F)cc1 | inactive: 1.02
Cc1noc(C)c1S(=O)(=O)Nc1ccc2c(c1)CC(=O)N([C@H](C)CO)C[C@H](C)[C@H](CN(C)C(=O)Nc1ccccc1)O2 | inactive: 0.975
Cc1cc2c(cc1C(=O)c1ccc(C(=O)O)cc1)C(C)(C)CCC2(C)C | inactive: 1.04
O=C1N[C@H](Cc2c[nH]c3ccccc23)COC(=O)[C@@H](Cc2ccc(F)cc2)CCC=CC[C@@H]1CC(=O)N(CCO)Cc1ccccc1 | inactive: 0.995
CCCCCCCCCCC[C@@H](N=O)c1cc(C)ccc1O | inactive: 0.963
OCC(O)C(O)C(O)CO (configuration not stated) | inactive: 0.888
C[C@@H]1CN([C@@H](C)CO)C(=O)c2cc(NC(=O)Nc3ccc4c(c3)OCO4)ccc2O[C@@H](C)CCCCO[C@H]1CN(C)S(=O)(=O)c1ccccc1 | inactive: 1.01
O=Cc1ccccc1OC1OC(CO)C(O)C(O)C1O (configuration not stated) | inactive: 1.07
C[C@@H]1CN([C@@H](C)CO)C(=O)c2cc(NS(=O)(=O)c3cn(C)cn3)ccc2O[C@H]1CN(C)C(=O)Nc1ccccc1 | inactive: 1
O=C(C[C@H]1CC[C@H]2[C@@H](COC[C@@H](O)CN2S(=O)(=O)c2cccc(F)c2)O1)NCc1ccncn1 | inactive: 1.01
C[C@H](CO)N1C[C@H](C)[C@H](CN(C)Cc2ccccc2F)Oc2cc(C#CCN(C)C)ccc2S1(=O)=O | inactive: 1.01
C[C@@H]1CN([C@@H](C)CO)C(=O)CCCn2nncc2CO[C@H]1CN(C)C(=O)c1cc(-c2ccccc2)on1 | inactive: 0.989
C[C@@H]1CN([C@H](C)CO)C(=O)c2cccc(NC(=O)c3nc4ccccc4s3)c2O[C@@H]1CN(C)C(=O)Nc1ccc(C(F)(F)F)cc1 | inactive: 0.96
C[C@@H]1CN([C@@H](C)CO)S(=O)(=O)c2ccc(-c3cncnc3)cc2O[C@H]1CN(C)C(=O)Cc1ccncc1 | inactive: 1.01
O=C(C[C@H]1C[C@H]2c3cc(NC(=O)NC4CCCC4)ccc3O[C@H]2[C@H](CO)O1)NCc1ccc2c(c1)OCO2 | inactive: 1.02

Compound | relative growth
C[C@@H]1CCCCO[C@H](CN(C)Cc2ccccc2)[C@H](C)CN([C@H](C)CO)C(=O)c2cc(NC(=O)Cc3ccccc3)ccc2O1 | inactive: 0.989
CNC(CC(C)C)C(=O)NC1C(=O)NC(CC(N)=O)C(=O)NC2C(=O)NC3C(=O)NC(C(=O)NC(C(=O)O)c4cc(O)cc(O)c4-c4cc3ccc4O)C(O)c3ccc(c(Cl)c3)Oc3cc2cc(c3OC2OC(CO)C(O)C(O)C2OC2CC(C)(N)C(O)C(C)O2)Oc2ccc(cc2Cl)C1O.Cl (configuration not stated) | inactive: 1
COc1ccc(CN(C)C[C@H]2Oc3ccc(NS(=O)(=O)c4c(C)noc4C)cc3CC(=O)N([C@H](C)CO)C[C@@H]2C)cc1 | inactive: 0.961
CCCc1cc(C)[nH]c(=O)c1CNC(=O)c1cc(-c2ccc(N3CCN(C(C)C)CC3)nc2)cc2c1cnn2C(C)C | inactive: 1.09
CC(C)NC(=O)N(C)C[C@@H]1Oc2ccc(NC(=O)Cc3ccccc3)cc2CC(=O)N([C@@H](C)CO)C[C@H]1C | inactive: 1
C[C@@H]1CN([C@H](C)CO)C(=O)c2cccc(NS(=O)(=O)c3ccc(Cl)cc3)c2O[C@@H]1CN(C)Cc1ccc(C(F)(F)F)cc1 | inactive: 1.02
CNC[C@@H]1Oc2cc(C#CCN(C)C)ccc2S(=O)(=O)N([C@@H](C)CO)C[C@@H]1C | inactive: 0.98
CC(=O)NC(CCC(N)=O)C(=O)O (configuration not stated) | inactive: 0.982
C[C@H]1CN([C@@H](C)CO)C(=O)c2cc(NS(=O)(=O)c3cccs3)ccc2O[C@@H]1CN(C)C(=O)Nc1cccc2ccccc12 | inactive: 0.999
C[C@@H]1CCCCO[C@H](CN(C)C(=O)C2CCCCC2)[C@@H](C)CN([C@H](C)CO)C(=O)c2cc(NS(=O)(=O)c3ccc(Cl)cc3)ccc2O1 | inactive: 1
C[C@@H]1CN([C@H](C)CO)C(=O)CCCn2cc(nn2)CO[C@@H]1CN(C)S(=O)(=O)c1cccc(C#N)c1 | inactive: 0.896
COc1ccc(S(=O)(=O)N(C)C[C@H]2Oc3c(NC(=O)c4ccncc4)cccc3C(=O)N([C@H](C)CO)C[C@H]2C)cc1 | inactive: 0.986
C[C@@H]1CCCCO[C@@H](CN(C)C(=O)Nc2ccc(F)cc2)[C@@H](C)CN([C@H](C)CO)C(=O)c2cc(NC(=O)Nc3cccc4ccccc34)ccc2O1 | inactive: 1.02
COc1ccc(CNC(=O)C[C@@H]2C[C@H]3c4cc(NC(=O)NC5CCCC5)ccc4O[C@H]3[C@H](CO)O2)cc1 | inactive: 0.972
C[C@@H]1CN([C@H](C)CO)C(=O)c2c(c3ccccc3n2C)-c2ccccc2CO[C@@H]1CN(C)C(=O)Nc1ccccc1C(F)(F)F | inactive: 0.971
C[C@H]1CN([C@@H](C)CO)C(=O)c2cccc(NC(=O)CCCCCC(=O)Nc3ccccc3N)c2O[C@@H]1CN(C)Cc1ccc(Cl)c(Cl)c1 | inactive: 1.02
C[C@H](CO)N1C[C@H](C)[C@@H](CN(C)C(=O)C2CCOCC2)Oc2ncc(/C=C/c3ccccc3)cc2C1=O | inactive: 0.964
C[C@H](CO)N1C[C@H](C)[C@H](CN(C)Cc2ccncc2)Oc2ncc(C#Cc3ccc(F)cc3)cc2C1=O | inactive: 0.981
COc1ccc(NC(=O)Nc2ccc3c(c2)CC(=O)N([C@H](C)CO)C[C@@H](C)[C@@H](CN(C)Cc2ccc(C(=O)Nc4ccccc4N)cc2)O3)cc1 | inactive: 0.969

Compound | relative growth
C[C@@H]1CCCCO[C@@H](CN(C)Cc2ccc(C(=O)O)cc2)[C@@H](C)CN([C@H](C)CO)C(=O)c2cc(NS(=O)(=O)c3ccc(F)cc3)ccc2O1 | inactive: 1.02
C[C@H]1CN([C@@H](C)CO)C(=O)c2cc(NC(=O)Nc3cccc4ccccc34)ccc2O[C@@H]1CN(C)Cc1ccc(Cl)c(Cl)c1 | inactive: 1.02
Cc1noc(C)c1NC(=O)N(C)C[C@H]1Oc2ccc(NS(C)(=O)=O)cc2C(=O)N([C@H](C)CO)C[C@H]1C | inactive: 1.02
C[C@@H]1CN([C@@H](C)CO)C(=O)c2cccc(NS(C)(=O)=O)c2O[C@H]1CN(C)Cc1ccc2c(c1)OCO2 | inactive: 0.957
CC(C)(C)c1ccc2c(c1)O[C@H](C(=O)N/N=C/c1ccc[nH]1)CO2.CC(C)(C)c1ccc2c(c1)O[C@H](C(=O)N/N=C\c1ccc[nH]1)CO2 | inactive: 1
CN(C)C(=O)C[C@@H]1CC[C@@H]2[C@H](COC[C@H](O)CN2S(=O)(=O)c2ccccc2)O1 | inactive: 1.02
COCC(=O)Nc1ccc2c(c1)OC[C@@H](C)N(C(=O)Cc1cccnc1)C[C@H](C)[C@H](OC)CN(C)C2=O | inactive: 1
COc1ccc(S(=O)(=O)Nc2ccc3c(c2)C(=O)N([C@@H](C)CO)C[C@H](C)[C@@H](CN(C)C(=O)C2CCCCC2)OCCCC[C@@H](C)O3)cc1 | inactive: 0.999
COc1ccc(CN(C)C[C@H]2Oc3c(NC(=O)Nc4ccc(C(F)(F)F)cc4)cccc3C(=O)N([C@@H](C)CO)C[C@@H]2C)cc1 | inactive: 0.761
C[C@H]1CN([C@@H](C)CO)C(=O)c2cccc(NC(=O)Nc3ccc(C(F)(F)F)cc3)c2O[C@@H]1CN(C)C(=O)Nc1ccc2c(c1)OCO2 | inactive: 0.911
O=c1c(-c2ccc(O)cc2)coc2c([C@@H]3O[C@H](CO)[C@@H](O)[C@H](O)[C@H]3O)c(O)ccc12 | inactive: 0.992
Cc1ccc(S(=O)(=O)C[C@H]2O[C@@H](n3cc(I)c(=O)[nH]c3=O)C[C@@H]2O)cc1 | inactive: 0.995
C[C@@H]1CCCCO[C@@H](CN(C)S(=O)(=O)c2ccc(Cl)cc2)[C@H](C)CN([C@@H](C)CO)C(=O)c2cc(NS(=O)(=O)c3cccs3)ccc2O1 | inactive: 1.05
C[C@@H]1CN([C@H](C)CO)C(=O)c2cc(NS(=O)(=O)c3cn(C)cn3)ccc2O[C@@H](C)CCCCO[C@H]1CN(C)S(=O)(=O)c1cn(C)cn1 | inactive: 0.983
COc1ccc(S(=O)(=O)N(C)C[C@H]2Oc3ccc(NC(=O)CCN4CCOCC4)cc3CC(=O)N([C@@H](C)CO)C[C@@H]2C)cc1 | inactive: 1.01
C[C@H]1CN([C@@H](C)CO)C(=O)c2cc(NC(=O)C3CC3)ccc2O[C@@H]1CN(C)S(=O)(=O)c1ccc(F)cc1 | inactive: 1
COc1ccc(S(=O)(=O)Nc2ccc3c(c2)C(=O)N([C@@H](C)CO)C[C@@H](C)[C@@H](CN(C)C(=O)NC(C)C)O3)cc1 | inactive: 0.967
C=CCNC(=O)[C@@H]1[C@H]2C(=O)O[C@H](c3ccccc3)[C@H](c3ccccc3)N2[C@H](c2ccccc2OCCO)[C@@]12C(=O)N(C(=O)OCCOC)c1ccc(C#Cc3ccc(OC)cc3)cc12 | inactive: 1.07
C[C@@H]1CN([C@@H](C)CO)C(=O)c2cc(NC(=O)c3ccncc3)ccc2O[C@@H](C)CCCCO[C@H]1CN(C)C(=O)Nc1cccc2ccccc12 | inactive: 0.985
